{"source": "PubChem BioAssay AID485294", "about": "(National Center for Advancing Translational Sciences (NCATS), 2010)", "note": "Where “and” joins values, the source holds several entries; their conditions need not be identical. Equal values may be shown once. In all, about 370,000 compounds went through this assay and about 150 (0.041%) were called active. The inconclusive results got no clear call from the source; some entries with a clear call stand among them for comparison. Calls follow the shape of the dose curve; as a rule, active = well fitted inhibition curve with a large enough effect; inconclusive = small, poorly fitted or top-dose-only effect; inactive = flat fitted curve, though single readings scatter. Potencies beside an inconclusive call are fits to weak or partial responses and may not hold up. Potency is read from the fitted curve at half-maximal effect; tags tell the direction and shape of the fitted curve."}
{"biological_target": "Beta-lactamase (Escherichia coli (strain K12)) (UniProt P00811)", "sequence (P00811 whole entry, looked up)": "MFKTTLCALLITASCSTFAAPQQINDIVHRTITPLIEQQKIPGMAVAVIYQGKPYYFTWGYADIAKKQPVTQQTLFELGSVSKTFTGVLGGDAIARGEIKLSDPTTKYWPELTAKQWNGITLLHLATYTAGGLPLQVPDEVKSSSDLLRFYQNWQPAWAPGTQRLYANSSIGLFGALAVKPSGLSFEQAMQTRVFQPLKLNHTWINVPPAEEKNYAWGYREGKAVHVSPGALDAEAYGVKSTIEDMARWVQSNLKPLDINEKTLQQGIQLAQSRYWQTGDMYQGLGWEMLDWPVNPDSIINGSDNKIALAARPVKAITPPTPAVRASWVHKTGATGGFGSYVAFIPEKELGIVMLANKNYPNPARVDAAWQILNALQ", "assay": "qHTS Inhibitors of AmpC Beta-Lactamase (assay with detergent); also: nearly all actives have a fitted effect of over 25% in size", "details": "AmpC hydrolysis of nitrocefin, absorbance 480 nm, 0.01% Triton; series mostly up to 114 µM", "summary_of_the_method": "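20 mM phosphate pH 7.0 + 0.01% (detergent screen) or 0.0001% Triton X-100; 5.3 nM AmpC reagent; cpd preinc 15 min RT; nitrocefin (800 uM stock) to start; A480 q20 s × 4 min; Activity was normalised to no-enzyme and no-compound control wells.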"}
{"smiles": "COCCNC(=O)c1ccccc1NC(=O)Nc1ccccc1", "Potency": "inactive"}
{"smiles": "COc1ccc(N2C(=O)CCC2(C#N)c2ccc(Br)cc2)cc1", "note": "(stereo not given)", "Potency": "inconclusive: 5.01 µM [inhibitor, full curve, poor fit]"}
{"smiles": "COc1ccc(/C=N\\NC(=O)c2ccccc2)cc1COc1ccccc1", "Potency": "inconclusive: 2.51 µM [inhibitor, full curve, poor fit]"}
{"smiles": "Cc1ccc(C)c(N2CCN(CCCNC(=O)CCn3c(=O)c4cccn4c4cccnc43)CC2)c1", "Potency": "inconclusive: 5.01 µM [inhibitor, full curve, poor fit]"}
{"smiles": "Cc1cc(OC(C)C(=O)Nc2ccc(S(=O)(=O)Nc3onc(C)c3C)cc2)cc(C)c1Cl", "note": "(stereo not given)", "Potency": "inconclusive: 35.5 µM [inhibitor, partial curve]"}
{"smiles": "COc1cc(/C=N/NC(=O)c2nc(-c3ccccc3)n(-c3ccccc3)n2)ccc1O", "Potency": "inconclusive: 100 µM [inhibitor, single point]"}
{"smiles": "N#CCC(=O)Nc1ccc(C(=O)OCC(=O)NNC(=O)c2cccs2)cc1", "Potency": "inconclusive: 2.82 µM [inhibitor, partial curve, poor fit]"}
{"smiles": "O=C(CCCCCl)Nc1c2c(nc3ccccc13)CCC2", "Potency": "inconclusive: 112 µM [inhibitor, partial curve, poor fit]"}
{"smiles": "Cc1cc(C(=O)N2CCC(CO)(Cc3cccc(C(F)(F)F)c3)CC2)n[nH]1", "Potency": "inconclusive: 6.31 µM [inhibitor, full curve, poor fit]"}
{"smiles": "O=C1N/C(=N\\S(=O)(=O)Cc2ccccc2)S/C1=C/c1cc([N+](=O)[O-])ccc1O", "Potency": "inconclusive: 56.2 µM [inhibitor, partial curve, poor fit]"}
{"smiles": "COC(=O)CCCCCNC(=S)Nc1ccc2[nH]c(=O)[nH]c2c1", "Potency": "inconclusive: 25.1 µM [inhibitor, full curve, poor fit]"}
{"smiles": "Cc1ccc(C[n+]2c(-c3ccc(C)cc3)cc(-c3ccc(C)cc3)cc2-c2ccc(C)cc2)cc1", "Potency": "inactive"}
{"smiles": "O=C(Cn1cnc2c(cnn2-c2ccccc2)c1=O)c1ccc(Cl)cc1", "Potency": "inconclusive: 5.01 µM [inhibitor, full curve, poor fit]"}
{"smiles": "Oc1c(C(Nc2cccc(C(F)(F)F)c2)c2ccncc2)ccc2cccnc12", "note": "(stereo not given)", "Potency": "inactive"}
{"smiles": "O=C(CSc1ccc2nnc(-c3ccccn3)n2n1)Nc1ccccc1", "Potency": "inactive"}
{"smiles": "Cn1c(=O)c2c(ncn2CC(=O)Nc2ccccc2Sc2ccccc2)n(C)c1=O", "Potency": "inconclusive: 0.891 µM [inhibitor, partial curve, poor fit]"}
{"smiles": "CCOC(=O)c1c(C)[nH]c(C(=O)Nc2ccc(NC(C)=O)cc2)c1C", "Potency": "inconclusive: 28.2 µM [inhibitor, full curve, poor fit]"}
{"smiles": "COc1cccc(C(=O)NN2CC(O)=C(c3nc4ccccc4s3)C2=N)c1", "Potency": "inconclusive: 0.631 µM [inhibitor, full curve, poor fit]"}
{"smiles": "COc1cc2c(cc1OC)C(C(=O)N(C)Cc1ccccc1)C(c1cccnc1)N(C)C2=O", "note": "(stereo not given)", "Potency": "inconclusive: 79.4 µM [inhibitor, single point]"}
{"smiles": "CN(C)c1nc(N)nc(-c2cccnc2)n1", "Potency": "inconclusive: 89.1 µM [inhibitor, single point]"}
{"smiles": "COc1cccc(CN2CC(C(=O)N(C)CCc3ccccc3)CCC2=O)c1", "note": "(stereo not given)", "Potency": "inconclusive: 5.01 µM [inhibitor, full curve, poor fit]"}
{"smiles": "CC(=O)NCCn1c(SCc2ccc(C)cc2)nc2ccccc2c1=O", "Potency": "inconclusive: 3.16 µM [inhibitor, full curve, poor fit]"}
{"smiles": "COc1cccc(-c2ccc3ncnc(N(C)Cc4ccco4)c3c2)c1", "Potency": "inactive and inconclusive: 1.41 µM [inhibitor, full curve]"}
{"smiles": "C=CCN1C(=O)/C(=C/c2cc(C)n(-c3ccccn3)c2C)C(=O)NC1=S", "Potency": "inconclusive: 56.2 µM [inhibitor, partial curve, poor fit]"}
{"smiles": "CC(C)OCCCNc1ncnc2c1[nH]c1ccccc12", "Potency": "inactive"}
{"smiles": "O=c1c2ccccc2oc2nc(-c3ccco3)n(-c3ccccc3)c(=O)c12", "Potency": "inconclusive: 28.2 µM [inhibitor, single point]"}
{"smiles": "CC(Sc1nncn1-c1ccccc1)C(=O)Nc1cccc([N+](=O)[O-])c1", "note": "(stereo not given)", "Potency": "inconclusive: 89.1 µM [inhibitor, single point]"}
{"smiles": "Cc1ccc(C)c(Cc2c(C)nc3c(C(=O)NCc4ccc5c(c4)OCO5)cnn3c2C)c1", "Potency": "inconclusive: 1.41 µM [inhibitor, full curve, poor fit]"}
{"smiles": "c1ccc(-n2nnnc2Oc2ccc(-n3ccnc3)cc2)cc1", "Potency": "inconclusive: 15.8 µM [inhibitor, full curve]"}
{"smiles": "C=CCNc1nc2c(c(=O)[nH]c(=O)n2C)n1CCCc1ccccc1", "Potency": "inconclusive: 0.631 µM [inhibitor, full curve]"}
{"smiles": "COc1ccccc1/C=N\\Nc1cc(C)nc(-n2nc(C)cc2C)n1", "Potency": "inconclusive: 1.41 µM [inhibitor, full curve, poor fit]"}
{"smiles": "CCCCNC(=O)CSc1nnc(C)c2c(C)n(-c3ccccc3)nc12", "Potency": "inactive"}
{"smiles": "COCC(C)NC(=O)c1cc2c(ccc3ccccc32)oc1=O", "note": "(stereo not given)", "Potency": "inconclusive: 0.562 µM [inhibitor, full curve, poor fit]"}
{"smiles": "Cc1ccc(Cn2c(C)c(CNCCCc3ccccc3)c(C(=O)O)c2C)cc1", "Potency": "inactive"}
{"smiles": "O=C(O)c1cc([N+](=O)[O-])ccc1NCc1ccccc1", "Potency": "inconclusive: 0.631 µM [inhibitor, full curve, poor fit]"}
{"smiles": "CCCCCCCOc1ccc(OC(=O)c2ccncc2)cc1", "Potency": "inconclusive: 0.631 µM [inhibitor, full curve, poor fit]"}
{"smiles": "O=C(Cc1c(F)cccc1Cl)Nc1cc(S(=O)(=O)N2CCOCC2)ccc1N1CCOCC1", "Potency": "inconclusive: 39.8 µM [inhibitor, full curve, poor fit]"}
{"smiles": "CN(C)C(=O)Oc1ccc(Br)c2ccccc12", "Potency": "inconclusive: 25.1 µM [inhibitor, full curve, poor fit]"}
{"smiles": "COc1ccc(-c2nn(-c3ccccc3)cc2C(=O)N2CCN(S(=O)(=O)c3cccc(F)c3)CC2)cc1", "Potency": "inconclusive: 56.2 µM [inhibitor, full curve, poor fit]"}
{"smiles": "O=[N+]([O-])c1cc(Br)c(O)c(/C=N/Nc2nc3ccccc3s2)c1", "Potency": "inconclusive: 0.708 µM [inhibitor, full curve, poor fit]"}
{"smiles": "CC1(C)CC(=O)C(C=NCCCO)=C(O)C1", "Potency": "inconclusive: 112 µM [inhibitor, partial curve, poor fit]"}
{"smiles": "CCCn1c(=S)[nH]c2cc(C(=O)N3CCc4ccccc43)ccc2c1=O", "Potency": "inconclusive: 28.2 µM [inhibitor, full curve, poor fit]"}
{"smiles": "Cc1nc(NS(=O)(=O)c2ccccc2)sc1C(=O)NNS(=O)(=O)c1ccccc1", "Potency": "inconclusive: 3.98 µM [inhibitor, full curve, poor fit]"}
{"smiles": "Cc1cc(C(=O)Oc2cccnc2)ccc1[N+](=O)[O-]", "Potency": "inconclusive: 5.01 µM [inhibitor, full curve, poor fit]"}
{"smiles": "CC1(C)CC(=O)C2=C(C1)OC(N)=C(C#N)[C@@]21C(=O)N(CC(N)=O)c2ccccc21", "Potency": "inconclusive: 100 µM [inhibitor, partial curve, poor fit]"}
{"smiles": "COc1cc(C(=O)N/N=C(\\Cc2ncc[nH]2)c2ccccc2)cc(OC)c1OC", "Potency": "inactive"}
{"smiles": "Cc1ccc(-c2nn3c(C)nnc3s2)cc1NC(=O)c1ccc(-c2ccc(Cl)cc2Cl)o1", "Potency": "inconclusive: 63.1 µM [inhibitor, partial curve]"}
{"smiles": "Cc1cccc(N(CC(=O)NCc2ccc3c(c2)OCO3)C(=O)CCC(=O)Nc2ccccn2)c1", "Potency": "inconclusive: 112 µM [inhibitor, partial curve, poor fit]"}
{"smiles": "Cc1ccc(NC(=O)CSCC(=O)Nc2ccccc2N2CCCCC2)cc1", "Potency": "inconclusive: 2.24 µM [inhibitor, full curve, poor fit]"}
{"smiles": "CC(=O)Nc1cc(-c2nc3ccccc3s2)ccc1C", "Potency": "inconclusive: 39.8 µM [inhibitor, single point]"}
{"smiles": "Cc1ccnc(NC(=O)c2sc3ccccc3c2Cl)c1", "Potency": "inactive"}
{"smiles": "CCCCCc1ccc(C(=O)CCC(=O)OCC(=O)N(CC)c2c(N)n(Cc3ccccc3)c(=O)[nH]c2=O)cc1", "Potency": "inconclusive: 0.631 µM [inhibitor, full curve, poor fit]"}
{"smiles": "Cc1cccc(NS(=O)(=O)c2ccc(Oc3ccccc3)cc2)n1", "Potency": "inconclusive: 8.91 µM [inhibitor, full curve]"}
{"smiles": "CC1CCN(c2ccc(NC(=O)c3ccc([N+](=O)[O-])o3)cc2)CC1", "Potency": "inconclusive: 1.12 µM [inhibitor, full curve]"}
{"smiles": "NC(=O)c1nsc(C(=O)N(Cc2cccnc2)C(C(=O)NCc2ccc(F)cc2)c2ccc(O)cc2)c1N", "note": "(stereo not given)", "Potency": "inactive"}
{"smiles": "Cc1[nH]c(C)c(S(=O)(=O)N2CCC(C)CC2)c1C(=O)N1CCCC1", "Potency": "inconclusive: 10 µM [inhibitor, full curve]"}
{"smiles": "CC1(CCc2ccccc2)NC(=O)N(CC(=O)Nc2ccccc2)C1=O", "note": "(stereo not given)", "Potency": "inconclusive: 44.7 µM [inhibitor, partial curve]"}
{"smiles": "Nc1nonc1C(=O)N/N=C/c1ccc(-c2cccc([N+](=O)[O-])c2)o1", "Potency": "inconclusive: 17.8 µM [inhibitor, single point]"}
{"smiles": "Cc1cc2c(o1)CC(C)(C)CC2=O", "Potency": "inconclusive: 0.562 µM [inhibitor, full curve, poor fit]"}
{"smiles": "CCN(CC(=O)Nc1ccc2c(c1)OCCO2)C(=O)c1cc(Cl)nc2ccccc12", "Potency": "inconclusive: 2 µM [inhibitor, full curve, poor fit]"}
